# Results as given in the supplement of paper PMC12217912.
# The list shows a part of the results. Sequences were assembled here from the parent chain. Values near 0.05 are background.
# B1: TEV protease; numbered along this chain (parent)
# chain: MGESLFKGPRDYNPISSSICHLTNESDGHTTSLYGIGFGPFIITNKHLFRRNNGTLVVQSLHGVFKVKDTTTLQQHLVDGRDMIIIRMPKDFPPFPQKLKFREPQREERICLVTTNFQTKSMSSMVSDTSCTFPSGDGIFWKHWIQTKDGQCGSPLVSTRDGFIVGIHSASNFTNTNNYFTSVPKNFMELLTNQEAQQWVSGWRLNADSVLWGGHKVFMVKPEEPFQPVKEATQL
# Variants of: B1
# Assay: raw area under fraction-flipped curve 0-4 h after induction (AUC4h, not background-subtracted), DNA-recorder readout of cleavage of the substrate (dimensionless); higher = more cleavage of the substrate by the protease variant
# Details: temperature: 34 °C; time window: 0-4 h after rhamnose induction
# Protocol: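 In vivo DNA recorder in E. coli TOP10(DE3) ΔrhaA at 34 °C. Each TEVp single-site mutant (parent TEVp 0) is paired with a single-site variant of the 7-mer TEVs (canonical ENLYFQ|S). The substrate sits between flexible linkers in a Bxb1-sfGFP-TEVs-SsrA fusion, so cleavage stabilises Bxb1 and speeds flipping of a recombination array, read by NGS. The value is the raw area under the fraction-flipped curve over 0-4 h after rhamnose induction (AUC4h), with ≥20 reads per time point. It is not background-subtracted; inactive controls average about 0.047.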
# 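Also: Bxb1 expression induced with 0.2% (w/v) L-rhamnose at OD600 near 0.5, cultures sampled hourly, flipped fraction per protease–substrate barcode pair counted by paired-end Illumina sequencing.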
Variant,area with substrate ENLYFQC,area with substrate ENLYFQD,area with substrate ENLYFQE,area with substrate ENLYFQG,area with substrate ENLYFQH,area with substrate ENLYFQK,area with substrate ENLYFQL,area with substrate ENLYFQM,area with substrate ENLYFQN,area with substrate ENLYFQR,area with substrate ENLYFQS,area with substrate ENLYFQT,area with substrate ENLYFQW,area with substrate ENLYFQY,area with substrate ENLYFQI,area with substrate ENLYFQP,area with substrate ENLYFQF,area with substrate ENLYFQV,area with substrate ENLYFQQ,area with substrate ENLYFQA
R10Y,0.068,0.0608,0.0681,0.0752,0.0615,0.0653,0.0514,0.0969,0.0681,0.07,0.0821,0.0608,0.0585,0.0715,–,–,–,–,–,–
D27N,0.102,–,–,–,–,0.0612,–,–,–,0.0706,0.0885,0.0534,–,0.0715,0.0539,0.0651,–,–,–,–
N52E,0.0824,–,–,–,–,0.06,0.0693,0.0628,0.0431,0.0565,0.0794,–,–,0.0624,–,–,0.061,0.0641,–,–
T55D,0.129,0.0565,–,0.085,–,–,0.0628,0.0928,0.0786,0.0542,0.088,0.0549,0.0528,–,0.0521,–,–,0.0331,–,–
T55A,0.124,0.0733,–,0.129,–,–,0.0486,0.0766,0.0866,0.0587,0.0993,–,0.082,–,–,–,0.0508,0.0658,–,–
T55N,0.0934,0.0459,0.0849,0.0661,–,–,0.0697,0.0864,0.071,0.0623,0.0899,0.0681,0.0621,–,0.056,–,–,–,–,–
F65H,0.113,0.06,–,–,0.102,0.0742,0.0864,0.0932,0.0823,0.0816,0.102,0.07,0.0597,0.0533,0.0551,–,0.0724,–,0.0534,–
G37H,0.0884,0.0954,–,–,0.118,–,0.0532,–,0.0663,0.0334,0.0816,0.05,0.0641,–,0.0569,–,0.0567,0.0551,–,–
R50M,0.16,0.0496,–,–,0.114,0.0635,0.0498,0.121,0.115,0.0641,0.152,–,0.0554,–,–,0.0763,0.0908,–,–,–
Q59L,0.108,–,–,–,–,–,0.0497,0.11,–,–,0.11,–,0.0741,–,0.0478,–,0.089,–,–,–
V67F,0.0958,0.0624,–,–,–,0.0748,0.0454,0.0878,0.076,0.0638,0.0937,0.0586,0.0862,0.0923,0.0636,–,0.0818,0.0604,–,–
T233L,0.086,0.0591,–,–,–,0.0712,0.0627,0.0659,0.0791,–,0.0908,0.0609,0.064,0.0685,0.055,0.0767,0.0417,–,–,0.102
E25F,0.117,–,–,0.095,0.0675,0.064,–,0.0904,0.0755,0.0616,0.0972,0.0889,0.0649,0.083,0.0512,0.0653,–,–,0.0924,–
I19A,0.0782,–,0.0528,0.0801,0.0781,0.0585,–,0.103,0.0741,0.053,0.0931,0.0634,0.0612,–,0.0438,–,–,–,–,–
L5W,0.136,–,–,–,–,0.0638,0.0598,0.116,–,0.0674,0.119,0.0651,0.0637,0.0758,0.0511,–,–,0.0579,–,–
L5A,0.131,–,–,0.1,0.0772,0.0697,0.0632,0.0767,0.0766,0.0602,0.114,0.0577,–,–,0.0626,–,–,0.0666,–,–
L5K,0.0972,0.0739,–,–,–,0.0599,0.0616,0.114,–,0.0753,0.129,–,0.0649,–,–,–,0.0773,0.0473,–,–
Y34R,0.0925,–,–,0.1,–,–,–,0.0548,–,–,0.0912,–,–,–,0.0637,–,–,–,–,–
Y34S,0.0716,–,–,–,–,0.0617,0.0549,0.0832,–,–,0.0949,0.0518,–,–,0.0562,–,0.0491,–,–,–
T23D,0.0916,0.0539,–,0.0912,–,–,0.0588,0.077,0.0719,–,0.0969,0.0596,–,0.0786,–,0.0407,0.0696,0.0617,–,–
F6P,0.096,–,0.068,–,0.0656,–,–,0.0691,–,0.0457,0.0898,–,0.0621,–,–,–,–,0.0798,–,–
F6G,0.115,0.0733,–,–,0.0773,0.0733,0.0448,–,–,0.0733,0.0977,–,–,–,–,–,–,–,0.0689,–
L61P,0.122,0.0646,0.0677,0.101,0.0785,0.0624,0.0637,0.0736,0.0573,0.0531,0.0997,0.0497,0.0602,0.082,0.0545,0.0428,–,–,–,–
S4Q,0.113,–,0.0661,0.0979,–,0.0592,0.068,0.0847,–,–,0.102,0.103,–,0.0685,0.0538,0.0573,–,0.0657,0.0804,–
T30E,0.0909,0.0678,–,0.0946,–,0.0614,0.0594,0.0702,0.0815,0.0702,0.0971,0.0631,0.0762,–,–,0.0561,0.0962,0.076,–,–
T30I,0.109,–,–,0.058,0.0666,0.0656,0.0997,0.0817,0.088,0.0554,0.0894,0.0697,0.0633,0.0538,0.0762,0.0739,0.0656,0.0683,–,–
T30P,0.0923,0.0621,–,–,0.0905,–,0.0537,–,–,0.0669,0.0893,0.0718,–,0.0409,–,–,0.0756,–,–,–
H62L,0.123,–,–,–,–,–,0.0617,0.0927,–,0.0791,0.0978,–,–,–,0.0598,–,–,–,0.0591,–
K66N,0.0907,0.0693,–,0.09,0.0776,–,–,–,0.0935,0.0683,0.0973,–,–,–,0.0627,–,–,–,0.09,–
I15T,0.121,0.0595,0.07,0.0884,0.0821,0.0766,0.0591,0.0906,0.0817,0.0547,0.0988,0.0578,0.0648,–,0.0546,0.0548,–,0.0476,0.07,–
